Data: PMC4336329 (PLoS ONE, 2015)
Screen size: about 310,000 compounds; about 2,200 (0.71%) showed an effect of 50% or more. The effect is printed as a negative number. The list shows a part of the results.

Biological target: human ether-à-go-go-related gene (hERG) potassium channel (human, UniProt Q12809)
Assay: primary screen, population patch clamp on CHO cells stably expressing hERG

human ether-à-go-go-related gene (hERG) potassium channel, sequence (Q12809 whole entry, looked up): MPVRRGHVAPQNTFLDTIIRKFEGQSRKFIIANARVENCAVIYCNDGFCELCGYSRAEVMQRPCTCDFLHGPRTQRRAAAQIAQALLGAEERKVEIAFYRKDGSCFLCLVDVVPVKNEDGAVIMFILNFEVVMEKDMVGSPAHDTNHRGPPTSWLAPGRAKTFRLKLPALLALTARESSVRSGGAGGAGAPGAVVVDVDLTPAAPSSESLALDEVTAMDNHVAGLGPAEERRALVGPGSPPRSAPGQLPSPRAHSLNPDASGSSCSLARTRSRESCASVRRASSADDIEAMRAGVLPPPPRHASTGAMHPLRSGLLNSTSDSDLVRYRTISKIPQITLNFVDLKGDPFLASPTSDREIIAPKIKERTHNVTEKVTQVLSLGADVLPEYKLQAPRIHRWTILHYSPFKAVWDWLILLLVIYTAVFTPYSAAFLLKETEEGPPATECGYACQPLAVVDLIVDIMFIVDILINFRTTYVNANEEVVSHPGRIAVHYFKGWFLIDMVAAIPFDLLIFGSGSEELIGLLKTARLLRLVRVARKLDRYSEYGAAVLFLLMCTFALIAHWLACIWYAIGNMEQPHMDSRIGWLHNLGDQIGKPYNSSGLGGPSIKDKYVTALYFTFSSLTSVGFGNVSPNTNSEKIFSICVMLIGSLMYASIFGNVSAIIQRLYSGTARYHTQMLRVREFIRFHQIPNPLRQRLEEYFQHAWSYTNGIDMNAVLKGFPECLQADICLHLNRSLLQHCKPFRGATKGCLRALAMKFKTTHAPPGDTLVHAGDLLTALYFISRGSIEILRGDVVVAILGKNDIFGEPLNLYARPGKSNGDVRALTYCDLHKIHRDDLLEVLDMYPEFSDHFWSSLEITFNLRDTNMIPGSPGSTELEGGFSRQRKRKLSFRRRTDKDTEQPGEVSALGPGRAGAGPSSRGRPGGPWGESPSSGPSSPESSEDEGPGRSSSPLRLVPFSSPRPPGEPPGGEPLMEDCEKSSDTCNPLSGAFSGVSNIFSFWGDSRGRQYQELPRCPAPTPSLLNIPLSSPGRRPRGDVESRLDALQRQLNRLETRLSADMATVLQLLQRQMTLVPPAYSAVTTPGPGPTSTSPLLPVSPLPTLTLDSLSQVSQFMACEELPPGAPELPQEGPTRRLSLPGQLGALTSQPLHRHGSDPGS

Compound | hERG current change (%, negative = inhibition) at 1uM
COc1ccc(C(CC(=O)N2CCN(c3ccccc3)CC2)c2c(OC)cc(OC)c3ccc(=O)oc23)cc1 (stereo not shown) | 12.6%
Cn1cccc1C(C(=O)NC1CCCCC1)N(C(=O)Cc1cccs1)C1CC1 (stereo not shown) | 10.7%
CCOC(=O)c1csc(NC(=O)c2ccc3c(c2)OCCO3)n1 | 10.2%
CC(=O)c1cccc(Nc2cc(C)nc3c(C)cc(C)cc23)c1.Cl | -8.43%
Cc1cccc(Cn2c(Cc3ccccc3)nc3ccccc32)c1 | -0.0286%
COc1ccc(CN2CCn3ncc(C(=O)Nc4cccc(C)c4)c3C2=O)cc1 | 10.4%
CCOc1ccc(C(=O)CCC(=O)NC(CC(C)C)C(=O)OC)cc1 (stereo not shown) | 8.11%
CCc1ccccc1-n1ncc(C(=O)Nc2ccccc2OC)c1C | 11.4%
O=C(NCc1ccccc1)C(=O)Nc1cccc(C(=O)O)c1 | 9.27%
COc1nc(NC(C)(C)C)nc(Oc2ccc(=O)n(C)n2)n1 | 18.8%
Cc1cccc(N(CC(=O)NC2CCCCC2)C(=O)CCCC(=O)Nc2ccccn2)c1 | 4.32%
O=C(CSc1nc2ccccc2s1)NNC(=S)Nc1ccc(Cl)cc1 | 10.4%
CN=C1S/C(=C\c2cccn2-c2cccc(Br)c2)C(=O)N1C | 2.64%
O=C(CSc1nc2ccsc2c(=O)n1CC1CCC(C(=O)O)CC1)c1ccc(F)cc1 (stereo not shown) | 10.2%
Cc1ccc(-c2cc(C(=O)N3CCCC3)no2)cc1 | 8.87%
CC(=O)C1=C(C)Nc2ncnn2C1c1ccc(C)cc1 (stereo not shown) | 8.11%
O=C(CSc1nccn1Cc1ccco1)Nc1cccc(F)c1 | -5.06%
C[C@@H](NC(=O)C1(c2ccccc2)CCN(C(=O)OC(C)(C)C)CC1)C(=O)N[C@@H](Cc1ccccc1)C(=O)O | -4.71%
CCN(CC)S(=O)(=O)c1ccc2c(c1)oc(=O)n2CC(=O)N(C)C1CCCCC1 | -7.27%
CC1CCCC(C)N1C(=O)C1CCCCC1 (stereo not shown) | 12.3%
COc1cc(C(=O)Nc2nnc(C)s2)cc(OC)c1OC | 4.94%
c1ccc(N2CCN(Cc3cnc(N4CCOCC4)s3)CC2)cc1 | 7.2%
CNC(=O)Cn1ncc2c3ccccc3n(C)c2c1=O | 13.1%
COc1ccc(/C=C2\C(=O)NC(=O)N(CCC3=CCCCC3)C2=O)c(OC)c1 | 7.4%
O=C(O)CSCc1nc2scc(-c3ccccc3)c2c(=O)[nH]1 | 11.5%
Cc1ccc(C)c(S(=O)(=O)NCc2ccc(C(=O)N3CCN(c4ccccc4)CC3)cc2)c1 | 11.6%
O=C1NC(=O)N(c2ccccc2)C(=O)/C1=C/c1coc2ccc(O)cc2c1=O | 8.07%
O=C(NN1CCOCC1)c1cc(-c2cccs2)nc2ccccc12 | 2.39%

Compound | hERG current change (%, negative = inhibition) at 1uM
O=C(Nc1nc(-c2cccs2)cs1)c1ccc(S(=O)(=O)N2CCCC2)cc1 | 10.3%
Cc1ccc(S(=O)(=O)CCC(=O)N(C)c2c(N)n(Cc3ccccc3)c(=O)[nH]c2=O)cc1 | 10.9%
Cc1ccc2c(c1C)NC(C)CC2C.Cl (stereo not shown) | 8.06%
CCn1c(C)nc2cc(C(=O)NNC(=S)Nc3ccc(OC)cc3)ccc21 | 15.3%
COc1cc2c(cc1OC)CN(C(=O)CCOc1ccccc1)CC2 | 14.5%
Cc1ccc(OC(C)C(=O)Nc2ccc3c(c2)n(C)c(=O)n3C)c(C)c1 (stereo not shown) | 11.9%
CCN(CC)Cc1oc(-c2ccccc2)cc1C(=O)O | 8.71%
CC1Cc2ccccc2N1C(=O)CSc1nc(-c2ccco2)cc(C(F)(F)F)n1 (stereo not shown) | -6.38%
Cc1ccccc1C(=O)Nc1ccc(C(=O)N/N=C/c2ccc(F)cc2)cc1 | 18.7%
FC(F)(F)c1cccc(NC(=S)NCCc2ccccn2)c1 | 2.28%
C1=CCN(Cc2ccccc2)C1 | 11.4%
O=C(NC1CCN(C(=O)NCc2ccccc2)CC1)c1ccc(F)cc1 | 3.75%
CCn1c(CNC(=O)COc2c(C)cccc2C)nnc1SCC(=O)Nc1nccs1 | -29.4%
CCNC(=O)c1cccc(S(=O)(=O)N2CCCCCC2)c1 | 5.61%
CC(C)[C@]12O[C@H]1[C@@H]1O[C@]13[C@]1(O[C@H]1C[C@H]1C4=C(CC[C@@]13C)C(=O)OC4)[C@@H]2O | 7.15%
CCOC(=O)C1CCCN(C(=O)Cn2c(=O)c3cccn3c3cccnc32)C1 (stereo not shown) | 16.8%
O=C(O)COc1cccc(NC(=O)c2ccccc2)c1 | 6%
COc1ccc(CNC(=O)C2CCN(S(=O)(=O)c3cccc4nsnc34)CC2)cc1 | 14.5%
CC(=O)c1cccc(NC(=S)NC(=O)c2ccccc2C)c1 | -0.276%
Cn1nc(-c2ccc(Cl)cc2)c2cc(C(=O)NCCCN3CCCC3)sc21 | -9.08%
COc1cc(CN2CCN(C(c3ccccc3)c3ccccc3)CC2)cc(OC)c1OC.O=C(O)C(=O)O | 11.7%
CCOc1ccccc1N1CCN(C(=O)c2ccc(OCC(=O)N3CCOCC3)c(OC)c2)CC1 | 4.66%
COc1ccc(OC)c(S(=O)(=O)N2CCC(C(=O)N(C)Cc3ccccc3)CC2)c1 | 3.15%
Cc1cc(C(=O)N2CCc3ccccc32)c2ccccc2n1 | 13.5%
CCN(CC(=O)Nc1c(C(=O)OC)[nH]c2ccc(C)cc12)c1ccc2c(c1)OCO2 | 11.6%
COc1ccc2[nH]c(=O)c(CN(C)C(=O)COc3ccccc3)cc2c1 | 17.8%
CCC(C(=O)Nc1ccccc1Cl)n1nc(C)c2c(C)n(-c3ccccc3)nc2c1=O (stereo not shown) | 8.4%
